Results as given in the supplement of paper PMC9446081.
Out of some 39,000 compounds screened, about 220 (0.56%) showed activity. The list shows a part of the results.

Test system: Escherichia coli K-12 BW25113
Test: relative growth (OD600 normalised to plate interquartile mean) (fraction); higher = less growth inhibition, active = 0.2 or less
Details: 50 µM; LB; incubation time: overnight (16-24 h)
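Also: static incubation at 37 °C against the wild-type strain, values averaged over two biological replicates.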

Row | SMILES | relative growth
1 | C[C@@H]1CN([C@H](C)CO)C(=O)CCCn2nncc2CO[C@@H]1CN(C)C(=O)Nc1ccnc(N2CCOCC2)c1 | inactive: 0.994
2 | CO/N=C1\CN(c2nc3c(cc2F)c(=O)c(C(=O)O)cn3C2CC2)C[C@@H]1CN | active: 0.154
3 | COc1ccccc1CNC(=O)C[C@@H]1CC[C@@H]2[C@H](COC[C@H](O)CN2C(=O)Nc2ccc(F)cc2)O1 | inactive: 0.975
4 | CC(C)(C)c1ccc(C(=O)Nc2cccc(C(F)(F)F)c2)cc1 | inactive: 1.03
5 | C[C@@H]1CCCCO[C@H](CN(C)Cc2ccc(C(F)(F)F)cc2)[C@@H](C)CN([C@H](C)CO)C(=O)c2cc(NC(=O)Nc3cccc4ccccc34)ccc2O1 | inactive: 1.06
6 | C[C@H]1CN([C@@H](C)CO)C(=O)Cc2cc(NC(=O)CCN3CCOCC3)ccc2O[C@H]1CN(C)CC1CCCCC1 | inactive: 0.995
7 | C[C@@H]1CN([C@@H](C)CO)C(=O)c2cc(C3=CCCCC3)cnc2O[C@H]1CN(C)S(=O)(=O)c1cn(C)cn1 | inactive: 1.01
8 | C[C@@H]1CN([C@@H](C)CO)C(=O)Cc2cc(NC(=O)Nc3ccc(C(F)(F)F)cc3)ccc2O[C@H]1CN(C)C(=O)Nc1ccccc1 | inactive: 1.04
9 | C[C@H]1CN([C@@H](C)CO)S(=O)(=O)c2ccc(-c3cncnc3)cc2O[C@@H]1CN(C)C(=O)C1CCCCC1 | inactive: 0.996
10 | O=C(C[C@H]1C[C@H]2c3cc(NC(=O)c4ccc5c(c4)OCO5)ccc3O[C@H]2[C@H](CO)O1)NCc1ccccn1 | inactive: 1.06
11 | O=C(C[C@@H]1CC[C@@H](NS(=O)(=O)c2ccccc2F)[C@H](CO)O1)NCCCN1CCOCC1 | inactive: 0.976
12 | Cc1ccc(S(=O)(=O)N(C)C[C@H]2Oc3cc(C#Cc4ccccc4)ccc3S(=O)(=O)N([C@@H](C)CO)C[C@@H]2C)cc1 | inactive: 1.03
13 | O=C(N[C@H]1CC[C@@H](CC(=O)N2CCOCC2)O[C@@H]1CO)c1ccc2c(c1)OCO2 | inactive: 1
14 | CC(C)NC(=O)N(C)C[C@@H]1Oc2ccc(NS(=O)(=O)c3cn(C)cn3)cc2C(=O)N([C@@H](C)CO)C[C@H]1C | inactive: 1
15 | CC(C)C#Cc1cnc2c(c1)C(=O)N([C@@H](C)CO)C[C@@H](C)[C@@H](CN(C)C(=O)c1ccc3c(c1)OCO3)O2 | inactive: 0.984
16 | Cc1noc(C)c1S(=O)(=O)N(C)C[C@H]1Oc2c(NS(=O)(=O)c3ccc(F)cc3)cccc2C(=O)N([C@@H](C)CO)C[C@H]1C | inactive: 1.01
17 | O=C(C[C@@H]1C=C[C@@H](NC(=O)c2ccc3c(c2)OCO3)[C@H](CO)O1)NCc1ccc(Oc2ccccc2)cc1 | inactive: 1.03
18 | CN(Cc1cc(Br)cc(Br)c1N)C1CCCCC1.Cl | inactive: 0.832
19 | OCC1OC(OCC2OC(O)C(O)C(O)C2O)C(O)C(O)C1O (stereo unspecified) | inactive: 0.929
20 | CC1CCC2C(C)C(OC(=O)CCC(=O)O)OC3OC4(C)CCC1C32OO4 (stereo unspecified) | inactive: 0.895
21 | C[C@H](CO)N1C[C@H](C)[C@@H](CN(C)Cc2ccc(Oc3ccccc3)cc2)Oc2c(NS(=O)(=O)c3ccccc3)cccc2C1=O | inactive: 1.02
22 | C[C@H](CO)N1C[C@H](C)[C@H](CN(C)S(=O)(=O)c2ccc(F)cc2)Oc2c(NS(=O)(=O)c3cccs3)cccc2C1=O | inactive: 1.01

Row | SMILES | relative growth
23 | C[C@H]1CCCCO[C@@H](CN(C)S(=O)(=O)c2ccc(Cl)cc2)[C@@H](C)CN([C@@H](C)CO)C(=O)c2cc(NS(=O)(=O)c3ccc(Cl)cc3)ccc2O1 | inactive: 1.01
24 | Cl.c1ccc2c(CC3=NCCN3)cccc2c1 | inactive: 1.12
25 | O=C1CCC(=O)NCC/C=C/CCN1 | inactive: 1.01
26 | Cc1noc(C)c1S(=O)(=O)N(C)C[C@H]1Oc2ccc(NC(=O)C3CC3)cc2CC(=O)N([C@H](C)CO)C[C@@H]1C | inactive: 1
27 | O=C(O)[C@@H](O)Cc1ccc(O)c(O)c1 | inactive: 0.995
28 | O=C(NCCC1=CCCCC1)c1sc2ccccc2c1Cl | inactive: 1
29 | COc1ccc(NC(=O)N(C)C[C@H]2Oc3c(NC(=O)Nc4cccc5ccccc45)cccc3C(=O)N([C@@H](C)CO)C[C@@H]2C)cc1 | inactive: 1.01
30 | COC[C@@H](C)NC(=O)C(=O)NC1CC1 | inactive: 0.973
31 | CN(C)CCN1CCN(C)C2(CCN(S(=O)(=O)C3CC3)CC2)C1=O | inactive: 1.01
32 | Cc1noc(C)c1NC(=O)N(C)C[C@@H]1OCCCC[C@@H](C)Oc2ccc(NC(=O)CCCCCC(=O)Nc3ccccc3N)cc2C(=O)N([C@H](C)CO)C[C@@H]1C | inactive: 1
33 | Cn1c(=O)c(=O)n(C)c2cc(S(=O)(=O)N3CCC[C@@H]3C(=O)O)ccc21 | inactive: 0.99
34 | C[C@@H]1CN([C@@H](C)CO)C(=O)c2cc(NC(=O)CCCCCC(=O)Nc3ccccc3N)ccc2O[C@H]1CN(C)C(=O)Nc1ccc(F)cc1 | inactive: 0.989
35 | COCCC(=O)NS(=O)(=O)c1ccccc1 | inactive: 1.01
36 | COc1c(-c2coc3cc4c(cc3c2=O)CC(O)C(C)(C)O4)ccc2c1C=CC(C)(C)O2 (stereo unspecified) | inactive: 0.821
37 | C[C@H]1CN([C@@H](C)CO)C(=O)Cc2cc(NC(=O)C3CCCCC3)ccc2O[C@H]1CN(C)C(=O)Nc1ccc(C(F)(F)F)cc1 | inactive: 1.01
38 | NCCNc1ccc([N+](=O)[O-])c(NCCO)c1 | inactive: 1.01
39 | CCOc1nc(N2CCOCC2)nc(N2CCOCC2)n1 | inactive: 1.01
40 | CN(C)CCN1C[C@@H]2CN(C(=O)[C@H]3CCCO3)C[C@H]2C1=O | inactive: 0.971
41 | CO[C@H]1CN(C)C(=O)c2ccc(NC(=O)Nc3ccccc3F)cc2OC[C@H](C)N(Cc2ccccc2C(=O)O)C[C@@H]1C | inactive: 1.02
42 | O=C1OCCC/C=C\[C@H]2O[C@@]34C=CCN(c5ccc6ccccc6c5)C(=O)[C@H]3N(CCCCCO)C(=O)[C@@H]4[C@@H]12 | inactive: 0.985
43 | Cc1noc(C)c1S(=O)(=O)Nc1ccc2c(c1)C(=O)N([C@@H](C)CO)C[C@H](C)[C@H](CN(C)C(=O)NC(C)C)O2 | inactive: 1.01
44 | Cc1noc(C)c1S(=O)(=O)N(C)C[C@@H]1Oc2ccc(NS(=O)(=O)c3ccc(Cl)cc3)cc2CC(=O)N([C@H](C)CO)C[C@H]1C | inactive: 1

Row | SMILES | relative growth
45 | C[C@@H]1CN([C@@H](C)CO)C(=O)c2cc(NC(=O)c3ccncc3)ccc2O[C@@H](C)CCCCO[C@@H]1CN(C)C(=O)Nc1ccccc1 | inactive: 0.976
46 | Cc1cc(C(C)(C)CC(C)(C)C)ccc1OCCOCC[N+](C)(C)Cc1ccccc1.[Cl-] | active: 0.0463
47 | CN(C)CC(=O)N[C@@H]1CC[C@H](CCNC(=O)C2CC2)O[C@H]1CO | inactive: 0.995
48 | CN(C)CC(=O)N[C@H]1CC[C@H](CC(=O)O)O[C@H]1CO | inactive: 1.03
49 | O=C(C[C@@H]1CC[C@H](NC(=O)CN2CCOCC2)[C@@H](CO)O1)NCCc1ccccc1 | inactive: 1
50 | Cc1noc(C)c1NC(=O)Nc1ccc2c(c1)C(=O)N([C@H](C)CO)C[C@@H](C)[C@H](CN(C)CC1CCCCC1)OCCCC[C@@H](C)O2 | inactive: 0.96
51 | C[C@@H]1CCCCO[C@@H](CN(C)C(=O)Nc2ccc(C(F)(F)F)cc2)[C@H](C)CN([C@@H](C)CO)C(=O)c2cc(NC(=O)Nc3ccc(F)cc3)ccc2O1 | inactive: 1.03
52 | C[C@@H]1CCCCO[C@H](CN(C)C(=O)C2CCCCC2)[C@H](C)CN([C@H](C)CO)C(=O)c2cc(NC(=O)c3ccncc3)ccc2O1 | inactive: 1.01
53 | Cc1noc(C)c1NC(=O)N(C)C[C@@H]1Oc2c(NS(=O)(=O)c3ccccc3)cccc2C(=O)N([C@@H](C)CO)C[C@H]1C | inactive: 1
54 | C[C@H]1CN([C@@H](C)CO)C(=O)c2cc(NS(=O)(=O)c3ccc(F)cc3)ccc2O[C@@H]1CN(C)S(C)(=O)=O | inactive: 1.02
55 | O=C1OC2(c3ccccc31)c1cc(I)c(O)c(I)c1Oc1c2cc(I)c(O)c1I | inactive: 1.03
56 | COc1ccc2cc(S(=O)(=O)N[C@H](CC(=O)N[C@H](Cc3ccc(CN4[C@H](C)CCC[C@@H]4C)cc3)C(=O)N(C)C(C)C)c3ccc4c(c3)OCO4)ccc2c1 | inactive: 1.02
57 | C[C@@H]1CCCCO[C@@H](CN(C)C(=O)C2CCCCC2)[C@H](C)CN([C@H](C)CO)C(=O)c2cc(NC(=O)NC3CCCCC3)ccc2O1 | inactive: 1.04
58 | C[C@@H]1CN([C@@H](C)CO)C(=O)c2cccc(NC(=O)c3nc4ccccc4s3)c2O[C@@H]1CN(C)Cc1ccc(C(F)(F)F)cc1 | inactive: 1.02
59 | O=C(C[C@H]1C[C@H]2c3cc(NS(=O)(=O)c4ccc(F)cc4)ccc3O[C@H]2[C@H](CO)O1)NCc1cccnc1 | inactive: 0.995
60 | C[C@@H]1CN([C@@H](C)CO)C(=O)c2cc(NC(=O)Nc3ccc(F)cc3)ccc2O[C@H]1CN(C)CC1CCCCC1 | inactive: 1
61 | C[C@@H]1CN([C@@H](C)CO)C(=O)CCCn2nncc2CO[C@@H]1CN(C)C(=O)C1CC1 | inactive: 1
62 | CC(C)NC(=O)Nc1ccc2c(c1)C(=O)N([C@@H](C)CO)C[C@@H](C)[C@@H](CN(C)CC1CCCCC1)OCCCC[C@H](C)O2 | inactive: 0.999
63 | C[C@@H]1CCCCO[C@@H](CN(C)C(=O)Nc2cccc3ccccc23)[C@H](C)CN([C@@H](C)CO)C(=O)c2cc(NC(=O)CCCN(C)C)ccc2O1 | inactive: 0.99
64 | O/N=C/c1ccc2ccccc2c1 | inactive: 1.03
65 | O=c1[nH]nc(N2CCSCC2)[nH]1 | inactive: 0.983
66 | C[C@H](CO)N1C[C@H](C)[C@H](CN(C)C(=O)Nc2ccccc2)OCCCC[C@H](C)Oc2ccc(NC(=O)C3CCCCC3)cc2C1=O | inactive: 0.981
